Assay results: PubChem BioAssay AID1347120 (National Center for Advancing Translational Sciences (NCATS), 2019)
The whole screen tested about 390,000 compounds, of which about 930 (0.24%) were called active. Inconclusive results, whose numbers are uncertain, are shown with a selection of clear calls. Calls come from the whole dose curve; as a rule, active = well fitted activation curve with a large enough effect; inconclusive = small, poorly fitted or top-dose-only effect; inactive = no such curve, though single readings can be large or run the other way. Where the call is inconclusive, the potency comes from a doubtful curve fit.

Assay: qHTS for Suppressors of FUS Proteinopathy: Primary screen using FUS-linked yeast assay; note: nearly all actives have a fitted effect of over 55% in size;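 for growth rescue (activation): plate controls were DMSO vehicle for no effect and reference control for full effect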
Conditions: S. cerevisiae FUS-expressing, OD600, 24 h; Potency: growth rescue; growth rescue (activation): at 76.6 µM (top of the series)
In short: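 Compound concentration series was pinned onto galactose-induced FUS-expressing yeast seeded at OD 0.005. Plates sat 24hr at 30C; absorbance at 600 nm gave growth. DMSO served as background control.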
Potency is the fitted concentration of half-maximal effect; tags give direction and shape of the fitted curve.

Compound	Potency	growth rescue (activation)
Cc1cccc(N(CC(=O)NC2CCCC2)C(=O)c2cc3cc4cccc(C)c4nc3s2)c1C	inconclusive: 3.98 µM [activator, full curve, poor fit]	
Cc1noc(/C=C/N(C)C)c1S(=O)(=O)N(C)CC(=O)N1CCc2ccccc21	inconclusive: 25.1 µM [activator, single point]	
CCOc1ccc(OCC)c(S(=O)(=O)N2CCCCC2C)c1 (stereo not given)	inconclusive: 0.316 µM [activator, full curve, poor fit]	
CC1CCCN(c2nc(-c3ccccc3O)nc3ccccc23)C1 (stereo not given)	inactive	
CC(=O)N1CCN(S(=O)(=O)c2cccc(C(=O)OCc3ccc(C(C)(C)C)cc3)c2)CC1	inconclusive: 50.1 µM [activator, single point]	
CN(C)S(=O)(=O)Oc1ccsc1C(=O)Nc1ccc(C(F)(F)F)cc1	inactive	
COc1cccc2c1O/C(=N\O)C(C(=O)Nc1cccc(C)c1C)C2 (stereo not given)	inactive	
Cc1cccc(NC(=O)CCc2nc3sc4c(c3c(=O)[nH]2)CCCC4)n1	inconclusive: 39.8 µM [activator, partial curve, poor fit]	
CCOc1ccc(-n2c(C)nc3cc(C(=O)NCc4ccc(C)cc4)ccc32)cc1	inconclusive: 44.7 µM [activator, single point]	
COC(=O)[C@@]12C[C@@H](CC(=O)NCCCCc3ccccc3)C(=O)N(CCc3ccc(OC)c(OC)c3)C1=CCC(C)(C)C2	inconclusive: 25.1 µM [activator, single point]	
COc1ccc(NC(=O)C2(C)CCN2C(=O)c2ccccc2CCc2ccccc2)cc1OC (stereo not given)	inconclusive: 25.1 µM [activator, single point]	
COc1ccc([C@H]2C[C@H](n3cc(-c4ccc(F)cc4)nn3)[C@@H](O)CN2C(=O)C2CCCCC2)cc1	inconclusive: 25.1 µM [activator, single point]	
COc1ccc(-c2csc(NCCc3nc4cc(C(=O)NCCCO)ccc4n3Cc3ccc(C)cc3)n2)cc1	inconclusive: 25.1 µM [activator, single point]	
COC(=O)c1ccc2nc(-c3cccc(Br)c3)c(Cc3ccccc3OC)n2c1	inactive	
[N-]=C=C1C(=S)NC(=O)[C@H]([n+]2ccccc2)[C@H]1c1ccc(Cl)cc1	inactive	
Cc1nc2cc(N3CCOCC3)c(NC(=O)C3CC3)cc2c(=O)n1Cc1ccccc1	inconclusive: 44.7 µM [activator, single point]	
Cc1cc(NC(=O)CSc2ccc(-c3nc4cc(C)c(C)cc4[nH]3)cn2)no1	inconclusive: 17.8 µM [activator, partial curve, poor fit]	
CC(Nc1nc(-c2ccc(F)cc2)cs1)c1nc2cc(Cl)c(Cl)cc2n1CCCO (stereo not given)	inconclusive: 28.2 µM [activator, single point]	
COc1cc(OC)cc(C(=O)N[C@H](C(=O)OCC(=O)c2ccc3c(c2)NC(=O)CO3)C(C)C)c1	inconclusive: 39.8 µM [activator, partial curve, poor fit]	
CCOc1c(C)cc2[nH]c(CCC(=O)O)nc2c1C	inactive	

Compound	Potency	growth rescue (activation)
CCOC(=O)C[C@@H]1OC2CCCCC2N1S(=O)(=O)c1ccc(C)cc1 (stereo not given in full)	inconclusive: 12.6 µM [activator, partial curve]	
COc1ccc2sc(N(Cc3cccnc3)C(=O)c3cccs3)nc2c1	inactive	
Cc1ccc2c(c1)C(c1ccccc1)N(C(=O)c1ccc(S(=O)(=O)N3CCCC3)cc1)CC(=O)N2 (stereo not given)	active: 25.1 µM	
C[C@H](CO)N1C[C@H](C)[C@@H](CN(C)C(=O)Nc2ccc(C(F)(F)F)cc2)Oc2ccc(NC(=O)Nc3ccc(C(F)(F)F)cc3)cc2C1=O	inconclusive: 31.6 µM [activator, single point]	
Cc1ccc(NC(=O)COC(=O)c2c(-c3ccccc3)noc2C)cc1	inactive	
CCCCN(C)C(=O)c1oc2ccc(S(=O)(=O)N3CCCCCC3)cc2c1C	inconclusive: 39.8 µM [activator, partial curve, poor fit]	
CCCCCCCNC(=O)C1(CC2CC(c3cccc(Br)c3)=NO2)CCN(C(=O)CCCCCBr)CC1 (stereo not given)	active: 28.2 µM	
Oc1ccc(N=C/C=C/c2cccc(Br)c2)cc1-c1nc2ccccc2s1	inconclusive: 3.16 µM [activator, partial curve, poor fit]	
O=C(c1cc2c([nH]c1=O)CCCC2)N1CCc2c([nH]c3ccccc23)C1c1ccccc1F (stereo not given)	inconclusive: 31.6 µM [activator, single point]	
CC(C)(C)n1nnnc1C(c1cc2ccccc2o1)N1CCN(C(=O)OCc2ccccc2)CC1 (stereo not given)	inconclusive: 28.2 µM [activator, single point]	
CCOc1cc(/C=C2/NC(=O)N(CC(=O)Nc3cccc(C)c3)C2=O)ccc1OC	inconclusive: 3.16 µM [activator, full curve]	
Cc1cc(OC(=O)c2c(Cl)cccc2Cl)nc(C)n1		inconclusive: 60% [activator]
COc1ccc(S(=O)(=O)Nc2ccc3c(c2)C(=O)N([C@H](C)CO)C[C@H](C)[C@@H](CN(C)S(=O)(=O)c2ccc(OC)cc2)O3)cc1	inconclusive: 22.4 µM [activator, single point]	
COc1cc2c(cc1OC)C(c1ccccc1O)N(C1CC(=O)N(c3ccccc3)C1=O)CC2 (stereo not given)	inconclusive: 50.1 µM [activator, single point]	
COC(=O)c1c(/N=C/N(C)C)sc2c1CCN(c1ncc(C(F)(F)F)cc1Cl)C2	inconclusive: 50.1 µM [activator, single point]	
O=C(Cc1cnc2ncnn2c1)N1CCc2c([nH]c3ccccc23)C1c1ccccc1F (stereo not given)	inactive	
COc1ccc(CN(CC#Cc2ccccc2)Cc2ccccc2)c(OC)c1	inactive	
O=C1CSC(=S)N1/N=C/c1ccc(O)c(O)c1O	inactive	
CCc1nnc(NCC(=O)N2CCc3ccccc32)s1	inconclusive: 6.31 µM [activator, full curve, poor fit]	
COc1ccccc1N1CCN(C(c2ccc(Cl)cc2)c2nnc(-c3cccc(F)c3)o2)CC1 (stereo not given)	inconclusive: 14.1 µM [activator, partial curve]	
